Among the data in the supplement of paper PMC9174493 are NF-kB reporter and ISRE reporter values, retold here.

The subject of test [1] is A549-Dual. Briefly: NF-kB reporter (SEAP) activity, viability-corrected, relative to vehicle (fold change vs vehicle); higher = more activation of STING-IRF / NF-kB immune response reporter.
For test [2], the system named is A549-Dual. As to the kind of experiment: ISRE reporter (Lucia luciferase) activity, viability-corrected, relative to vehicle (fold change vs vehicle); higher = more activation of STING-IRF / NF-kB immune response reporter.

The structures appear in SMILES notation. This is one part of the list. Single values of this set are uncertain. Values with irradiation are relative to irradiated vehicle.
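For NF-kB reporter (SEAP) activity, viability-corrected, relative to vehicle in this document: viability correction based on the alamar blue assay, with concentrations leaving 10% survival or less dropped.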

For the molecule `COC(=O)CC(O)(CCC(C)(C)O)C(=O)OC1C(OC)=CC23CCCN2CCc2cc4c(cc2C13)OCO4` (stereo not given) [Harringtonine], the NF-kB reporter with A549-Dual [1] (0.1 µM, irradiation: 8 Gy/4 fr) is 0.399; with A549-Dual [1] (0.1 µM, irradiation: none) it was 0.682; in the test on A549-Dual [1] (0.3 µM, irradiation: 8 Gy/4 fr), 0.84; in the test with A549-Dual [1] (0.3 µM, irradiation: none), 1.04; with A549-Dual [1] (1 µM, irradiation: 8 Gy/4 fr), 0.528; in the test on A549-Dual [1] (1 µM, irradiation: none), 1.82. Besides, the NF-kB reporter with A549-Dual [1] (3 µM, irradiation: 8 Gy/4 fr) turned out to be 1.83; with A549-Dual [1] (3 µM, irradiation: none), 2.88; with A549-Dual [1] (10 µM, irradiation: 8 Gy/4 fr), 1.42; in the test on A549-Dual [1] (10 µM, irradiation: none) it was 1.67. For the same molecule, the ISRE reporter in the test with A549-Dual [2] (0.1 µM, irradiation: 8 Gy/4 fr) was 0.0362; with A549-Dual [2] (0.1 µM, irradiation: none), 0.11; in the test with A549-Dual [2] (0.3 µM, irradiation: 8 Gy/4 fr) it was 0.0206; in the test on A549-Dual [2] (0.3 µM, irradiation: none) it was 0.109; with A549-Dual [2] (1 µM, irradiation: 8 Gy/4 fr), 0.0125; in the test on A549-Dual [2] (1 µM, irradiation: none), 0.122. For the same molecule, the ISRE reporter with A549-Dual [2] (3 µM, irradiation: 8 Gy/4 fr) is 0.048; with A549-Dual [2] (3 µM, irradiation: none), 0.167; in the test on A549-Dual [2] (10 µM, irradiation: 8 Gy/4 fr), 0.0266; in the test with A549-Dual [2] (10 µM, irradiation: none), 0.262.
On to `CC(C)C12OC1C1OC13C1(C)CCC4=C(COC4=O)C1CC1OC13C2=O` (stereo not given) [Triptonide], for which the NF-kB reporter amounted to 0.546 with A549-Dual [1] (0.1 µM, irradiation: 8 Gy/4 fr); 0.809 with A549-Dual [1] (0.1 µM, irradiation: none); 0.608 in the test with A549-Dual [1] (0.3 µM, irradiation: 8 Gy/4 fr); 0.738 in the test on A549-Dual [1] (0.3 µM, irradiation: none); 0.54 in the test with A549-Dual [1] (1 µM, irradiation: 8 Gy/4 fr); 1.39 in the test with A549-Dual [1] (1 µM, irradiation: none). The NF-kB reporter with A549-Dual [1] (3 µM, irradiation: 8 Gy/4 fr) turned out to be 0.611; in the test on A549-Dual [1] (3 µM, irradiation: none) it was 1.35; with A549-Dual [1] (10 µM, irradiation: 8 Gy/4 fr) it was 0.737; in the test on A549-Dual [1] (10 µM, irradiation: none), 1.05. The ISRE reporter in the test on A549-Dual [2] (0.1 µM, irradiation: 8 Gy/4 fr) turned out to be 0.331; in the test on A549-Dual [2] (0.1 µM, irradiation: none), 1.19; with A549-Dual [2] (0.3 µM, irradiation: 8 Gy/4 fr), 0.065; with A549-Dual [2] (0.3 µM, irradiation: none), 0.412; in the test on A549-Dual [2] (1 µM, irradiation: 8 Gy/4 fr), 0.0681; with A549-Dual [2] (1 µM, irradiation: none), 0.343. The ISRE reporter worked out at 0.0654 in the test with A549-Dual [2] (3 µM, irradiation: 8 Gy/4 fr); 0.276 in the test with A549-Dual [2] (3 µM, irradiation: none); 0.0575 with A549-Dual [2] (10 µM, irradiation: 8 Gy/4 fr); 0.373 in the test on A549-Dual [2] (10 µM, irradiation: none).
`COc1cc2c3c(c1OC)-c1ccccc1CC3N(C)CC2` (stereo not given) [Nuciferine]: the NF-kB reporter stood at 0.766 in the test on A549-Dual [1] (10 µM, irradiation: 8 Gy/4 fr) and 0.929 in the test on A549-Dual [1] (10 µM, irradiation: none). The ISRE reporter in the test with A549-Dual [2] (10 µM, irradiation: 8 Gy/4 fr) is 0.702; with A549-Dual [2] (10 µM, irradiation: none), 0.471.
For `O=[N+]([O-])OC1COC2C(O)COC12` (stereo not given) [Isosorbide Mononitrate], the NF-kB reporter with A549-Dual [1] (10 µM, irradiation: 8 Gy/4 fr) came out at 0.919; in the test with A549-Dual [1] (10 µM, irradiation: none), 0.866. Further, the ISRE reporter worked out at 0.827 in the test on A549-Dual [2] (10 µM, irradiation: 8 Gy/4 fr) and 1.02 in the test on A549-Dual [2] (10 µM, irradiation: none).
In the same order, the values of `O=C1C=C2C=CC3CC2(O1)C1CCCCN31` (stereo not given) [Securinine] are 1.04, 1.25, 0.595 and 0.684.
As for `COc1ccc(CN2CCNCC2)c(OC)c1OC` [Trimetazidine], the NF-kB reporter was 0.797 with A549-Dual [1] (10 µM, irradiation: 8 Gy/4 fr) and 0.823 with A549-Dual [1] (10 µM, irradiation: none). Besides, the ISRE reporter in the test with A549-Dual [2] (10 µM, irradiation: 8 Gy/4 fr) was determined as 0.704; in the test with A549-Dual [2] (10 µM, irradiation: none), 0.775.
As to `CC12CCC(=O)C=C1C=CC1C2CCC2(C)C1CCC2(O)CCC(=O)[O-].[K+]` (stereo not given) [Potassium Canrenoate], the NF-kB reporter in the test with A549-Dual [1] (10 µM, irradiation: 8 Gy/4 fr) is 1.63; in the test with A549-Dual [1] (10 µM, irradiation: none) it was 2.25. The ISRE reporter in the test on A549-Dual [2] (10 µM, irradiation: 8 Gy/4 fr) turned out to be 0.646; in the test with A549-Dual [2] (10 µM, irradiation: none) it was 2.29.
For `NCC1(CC(=O)O)CCCCC1` [Gabapentin], in that order: 0.696, 1.85, 0.554 and 0.885.
With `NC(=O)CN1CC(O)CC1=O` (stereo not given) [Oxiracetam], the NF-kB reporter in the test on A549-Dual [1] (10 µM, irradiation: 8 Gy/4 fr) is 1; with A549-Dual [1] (10 µM, irradiation: none), 1.3. Also, the ISRE reporter stood at 1.02 in the test on A549-Dual [2] (10 µM, irradiation: 8 Gy/4 fr) and 1.22 in the test on A549-Dual [2] (10 µM, irradiation: none).
With `CN1C2CC(OC(=O)C(CO)c3ccccc3)CC1C(O)C2` (stereo not given) [Raceanisodamine], the NF-kB reporter in the test with A549-Dual [1] (10 µM, irradiation: 8 Gy/4 fr) worked out at 0.984; with A549-Dual [1] (10 µM, irradiation: none), 1.37. The ISRE reporter with A549-Dual [2] (10 µM, irradiation: 8 Gy/4 fr) amounted to 0.877; in the test on A549-Dual [2] (10 µM, irradiation: none), 0.981.
With `Cc1ncc(CNC(=O)N(CCCl)N=O)c(N)n1.Cl` [Nimustine Hydrochloride], the NF-kB reporter was 0.487 with A549-Dual [1] (10 µM, irradiation: 8 Gy/4 fr) and 0.591 in the test with A549-Dual [1] (10 µM, irradiation: none). Moreover, the ISRE reporter was 0.566 in the test on A549-Dual [2] (10 µM, irradiation: 8 Gy/4 fr) and 0.652 in the test on A549-Dual [2] (10 µM, irradiation: none).
In the same order, the values of `O=C(CS(=O)C(c1ccccc1)c1ccccc1)NO` (stereo not given) [Adrafinil] are 0.674, 1.27, 0.649 and 0.647.
As for `CC(=O)NC1CCSC1=O` (stereo not given) [Citiolone], the NF-kB reporter with A549-Dual [1] (10 µM, irradiation: 8 Gy/4 fr) is 0.948; in the test with A549-Dual [1] (10 µM, irradiation: none), 1.2. Also, the ISRE reporter with A549-Dual [2] (10 µM, irradiation: 8 Gy/4 fr) turned out to be 0.69; in the test with A549-Dual [2] (10 µM, irradiation: none) it was 0.506.
For `CCC1CN2CCC3(C(=O)Nc4ccccc43)C2CC1/C(=C\OC)C(=O)OC` (stereo not given) [Rhynchophylline], in that order: 1.14, 0.869, 1.15 and 0.834.
For `CN(C)NC(=O)CCC(=O)O` [Daminozide], in that order: 1.31, 0.9, 1.15 and 0.635.
For `CN(C)Cc1c[nH]c2ccccc12` [Gramine], the NF-kB reporter in the test with A549-Dual [1] (10 µM, irradiation: 8 Gy/4 fr) stood at 0.643; with A549-Dual [1] (10 µM, irradiation: none), 0.507. Further, the ISRE reporter in the test with A549-Dual [2] (10 µM, irradiation: 8 Gy/4 fr) was 0.642; with A549-Dual [2] (10 µM, irradiation: none), 0.515.
For `CC1OC1P(=O)([O-])[O-].[Na+].[Na+]` (stereo not given) [Fosfomycin Disodium], in that order: 0.672, 0.945, 0.657 and 0.802.
